Measurements published in the supplement of paper PMC11417369.
± gives the standard deviation of the averaged measurements. The list shows a part of the results.

The sequences below were run on PfAP2-EXP AP2 domain (GST-tagged) (assay: gcPBM binding intensity (ln(normalized median fluorescence intensity)); higher = stronger DNA binding).
How it was run: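 DNA-binding domains from P. falciparum, fused to GST and produced in E. coli, were put on an Agilent 4 × 180k double-stranded probe array for 1 h in 1× PBS holding 1% milk, 0.2 mg/ml BSA, 0.5% salmon testes DNA and 0.03% Triton X-100. Probes were primer-extended, 36 bp long and drawn from intergenic genomic regions, with negative controls included. After Alexa488 anti-GST antibody detection and a 488 nm scan, binding intensity was set as the highest Masliner-normalised natural-log median intensity across replicate spots of either probe orientation.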

Sequence	gcPBM binding intensity (ln)
TGATATATATATATATATATAACACACGCAAAAAAA [TGCATGCA_negctrl_site240]	8.73 ± 0.51
AAAAATTTCATATTCACACACAAAAAAAAAAAATAT [CACACA_site1592]	8.59 ± 0.66
ATAATCACAAATAATTGTACATTTTGTTATATATAT [XGTACX_site7704]	8.45 ± 0.28
ATATGATATATATTCGGTACACATATATATAAAGAG [XGTACX_site430]	8.82 ± 0.28
TTTTTAATTTATTGTGTGCACACAACTATGAGTTTT	8.81 ± 0.28
AAGTTTTCTTAAAATTGTACTTTTCAAAAATAATCT [XGTACX_site277]	7.99 ± 0.3
ATTTAAATAATATTCACACACAAAATTATATTTTAA [CACACA_site219]	8.14 ± 0.46
TTTATACTTGTAAATGCACACATAAGATGCGACTAA [CACACA_site8662]	8.43 ± 0.32
ATATCCTTAAAAGATACACACATATGAATATTTTGT [CACACA_site3847]	8.28 ± 0.34
GTTTGTAAATATTTTACACACATATATATATATATA [CACACA_site1075]	10.2 ± 0.41
ATTATAGACACGCGCACACACAACAAAAAAAAAAAA [CACACA_site9180]	8.75 ± 0.62
TTGGGGTATCTTCCTATGCACACTTGTTATGTACTA [CACACA_site831]	9.14 ± 0.45
TTGCTCACAAGAAGCACACAAAAAAAGAAAAAAAAA [CACACA_site4047]	8.11 ± 0.24
TTGATTACTAGAAATGCACACACTGATAAAATAAGG [CACACA_site4134]	8.79 ± 0.32
ATACTTTTAAATTGATGTACTTTATTTATAAGGTGA [XGTACX_site6746]	8.38 ± 0.38
TACATGATATATCACACACACATATAAATATATATA [CACACA_site2831]	8.59 ± 0.45
TATAAAACGGATGAACAACAAATCATATGGCACAAA [TGCATGCA_negctrl_site608]	9.03 ± 0.071
TTCACAAAATATTATTGTACATTAAAATATTTATAT [XGTACX_site2535]	8.3 ± 0.37
GAAAATTTCTTATTTTGTACACACAATAAATATTCA [XGTACX_site3267]	8.4 ± 0.36
GTTTTTTTATTTCATCGTACAAAAAAGAAGGCTTTA [XGTACX_site5291]	8.4 ± 0.4
TTATATATTTATTTATGTACATATTTTTTTATTATA [XGTACX_site6115]	8.77 ± 0.33
TAAATATGTATTCATACATGCACATATATATATATA [TGCATGCA_site584]	10.2 ± 0.3
TAAAAAATAAAAAAAGCACACACATATATATATATA [CACACA_site8567]	10.3 ± 0.25

Sequence	gcPBM binding intensity (ln)
AAAATAAGAAATTGAAAAATTGAAAACAAAATTAAA [CACACA_negctrl_site1285]	8.33 ± 0.42
TTACAAATGTTTTACACACACATAATTGTATCAATT [CACACA_site6147]	8.51 ± 0.33
ACTACTCCATTAAGTAGTACACAAAAAAAAAAAATA [XGTACX_site7031]	8.44 ± 0.5
TAATAAAACATATATACACACATTATAAATACATAT [CACACA_site5014]	8.53 ± 0.35
TATAAATAAAAACACACACACATATATATATATATA [CACACA_site2319]	10.1 ± 0.32
CCATTTTAAATATGCACACAGATGCACTAACCCATT [CACACA_site1883]	9 ± 0.028
TAAAAATTAATATAAACACACAAAAATTAATAAATA [CACACA_site381]	8.51 ± 0.34
TCGGGAGGGGGGAAGCGTACATATATAAAATTATTA [XGTACX_site4683]	10.4
TATAACAAGTTATAAAGTACAAATGTTGAATTTTAT [XGTACX_site4673]	8.29 ± 0.4
TATAGATACAGATACACACACACACCGACATATATA [CACACA_site5832]	8.8 ± 0.48
GAATGTATATTCATGTATTTATTATTATTATTATTA [XGTACX_negctrl_site156]	8.26 ± 0.092
ATTATTTTACTAAAAGATATTCCTTTTTTTTGTACT [CACACA_negctrl_site998]	8.43 ± 0.38
TATGTATTTATATTAACACACAAAAAAAAAAAAAAA [CACACA_site5070]	8.22 ± 0.46
ATATGGCTAAAAGTTGCACACACACTAATAAAAAAA [CACACA_site9082]	8.68 ± 0.43
ATATGCCTAATAAAATGTACGTTTGTTTTATTTATT [XGTACX_site3833]	8.72 ± 0.57
ATATATATATTTTGGTAGCACCTCCTTTTTTTTTTT	9.48 ± 0.13
GCGAAATATTATTATAGTATACAAATACTTCTATGA [CACACA_negctrl_site197]	8.38 ± 0.33
ACAGTATCTGGTAGCTGTACGAGTCGTAGAGTGCAG [XGTACX_site2015]	8.95 ± 0.28
GGTAAGTACGACTTGACACACATACCCATATATATA [CACACA_site4837]	8.57 ± 0.3
GGTGTTAAAAAATACACACACAAAAAAAAAAAAAAA [CACACA_site138]	8.22 ± 0.57
TTTTTTTAATTTGGTTGTACTTAAAAAAAAAACAGA [XGTACX_site5788]	8.43 ± 0.36
TATATAAATAGACACACACACATATAAATATAAATA [CACACA_site6503]	8.77 ± 0.38
TTCTTCTGTTTTATTACACACCATTTTGTGGATACA [CACACA_site5181]	8.93 ± 0.29

Sequence	gcPBM binding intensity (ln)
TACCTAGGATTAAAGTGTCCACATAATTTAAATAAT [XGTACX_site6736]	9.02 ± 0.6
TTTTTTATTATATAATTGTATATAAAATTATAATTT [GTGCAC_negctrl_site733]	8.37 ± 0.35
TAACTTGAATGGATATGTACATATATATATATATAT [XGTACX_site5990]	10.1 ± 0.4
TAGATGTATGTACATACACACATATATAAATAAATA [CACACA_site1788]	8.61 ± 0.54
AATAAACATATATACACACACAAAAAAAAAAACATA [CACACA_site424]	8.65 ± 0.5
ATTCATCTATTTTGTAGTACTAAATATATATCTACT [XGTACX_site8790]	8.74 ± 0.28
TATTCTAATATTTATACACACATAACTTTGATAAAT [CACACA_site6418]	8.37 ± 0.46
ATTAATTATTGTAATTGTACATTTTATATATATCCA [XGTACX_site2105]	8.62 ± 0.37
TTTCTTGGGAGACATGCATGTACCAGAACAAAATAA [TGCATGCA_site272]	9.55 ± 0.54
TATATATAGCATATTTCACACACACCGAATGAATAT [CACACA_site9182]	8.64 ± 0.36
TTTTTTTTTTTATATACTGGAAATATATTTAATTTA [GTGCAC_negctrl_site250]	8.38 ± 0.33
TTTATTTTTATGGTCACACATATTTTTAAAACTATA [CACACA_site4372]	8.7 ± 0.2
TACAAAATAGTTTACACACACATATATATACATATA [CACACA_site2615]	8.41 ± 0.4
CACCCATAGAAACACACACACGCATAAAAAAAAAAA [CACACA_site1513]	8.62 ± 0.52
TAAAAACAAAAATGCACACATAATAAGCATATGTAT [CACACA_site3469]	8.55 ± 0.32
TTCATAAGAAGGAACTGTACATATTTTTCATTTTTT [XGTACX_site6770]	8.21 ± 0.38
AACAGGTCATAATTTACACACTATATATCTTATTAT [CACACA_site6461]	8.88 ± 0.57
TACAATCTTTCATTATGTACTTAACATTTTTTCTGT [XGTACX_site8752]	8.74 ± 0.34
TTATATGTATATATATGTATATATATATATATATAG [TGCATGCA_negctrl_site461]	8.23 ± 0.092
CGATTTTTTTTTTATTGTACTTGCTCGCATGCAATA [XGTACX_site4727]	9.12 ± 0.13
TGTATACCTTAATATACACACATACAGATATATATA [CACACA_site4860]	8.41 ± 0.29
ATATGCATTTTTATACGTACATATTTCTTTTCGTTA [XGTACX_site1497]	9.22 ± 0.14
TGTTTTATTTAGAAGGTGCACATTAATATTAAATAA	9.67 ± 0.89

Sequence	gcPBM binding intensity (ln)
ACAAAAGGGGAATACACACACATATATAAATAAATA [CACACA_site7111]	8.73 ± 0.45
CATATTTTTATGAGATGTACAATAAGAAATATGTAA [XGTACX_site2389]	8.66 ± 0.38
GCATAAACGGATAATTAATTATATTATATTATATCA [CACACA_negctrl_site1519]	8.24 ± 0.41
TCGTGAATGATTTAAGTACACACCGGTATTTATTCA [CACACA_site1564]	8.39 ± 0.52
TTATCCTTGTAACAATGTACACATTATTTAATACTT [XGTACX_site1830]	8.64 ± 0.31
TATTGTTGTCTTTACACATGCAACAAAAGAAGAAAA [TGCATGCA_site911]	8.91 ± 0.26
ATTTATTTATATATATTATTTGTTTTAATTTACTTA [XGTACX_negctrl_site246]	8.45 ± 0.35
TTTTTTTTTTGATGCACACACCTGAACGAGTTAATA [CACACA_site4329]	8.83 ± 0.37
CATACAGATGGACACACACACACACCCACAGACAAA [CACACA_site4431]	8.64 ± 0.55
CATATCTCTTATTAATGTACATTTTTAAAAGTAAAT [XGTACX_site2847]	8.51 ± 0.36
TTTATATAATGGAAAAGTACTCAGGAAATTTATACA [XGTACX_site3635]	8.65 ± 0.28
CTTTTTTTTATGAACAGTACAGAAATATATATATAC [XGTACX_site5613]	8.73 ± 0.43
CAAGAACAAAAAATATGTACATATAATTATATATAT [XGTACX_site2082]	8.83 ± 0.27
TTAAAATTAAAAATAGGTACACATATGAACAAGGAC [XGTACX_site1180]	9.36 ± 0.38
TTATATGATATATGACGTACATATTAATAACATCTA [XGTACX_site6716]	8.39 ± 0.33
TGTAATATTTTATAAAGTACATTATAATATAATTCA [XGTACX_site2961]	8.09 ± 0.29
CAATCAACAAAACATACACACACATATATATATATA [CACACA_site8979]	10 ± 0.26
AGATTGAAATATAGTTGTACAAATATTTTAAAACAT [XGTACX_site3026]	8.69 ± 0.35
TTTTTTTCTATAATACACCAGAAAAAAAAATTAAAA [TGCATGCA_negctrl_site257]	8.32 ± 0.34
TTGTTCCAATAAAATCGTACAATTAAACAACCAAAC [XGTACX_site5759]	8.96 ± 0.43
